According to PubChem BioAssay AID1347165 (National Center for Advancing Translational Sciences (NCATS), 2019):
The campaign covered roughly 220,000 compounds. About 5,700 (2.6%) were called active. The shares of active, inactive and inconclusive entries below differ from those in the screen. Calls come from the whole dose curve; as a rule, active = well fitted inhibition curve with a large enough effect; inconclusive = small, poorly fitted or top-dose-only effect; inactive = no such curve, though single readings can be large or run the other way. Potencies of inconclusive entries are doubtful fits and often do not repeat.

biological target: Lysine-specific demethylase 5B (Homo sapiens) (UniProt Q9UGL1); assay: Primary screen for KDM5B Histone Demethylases FDH-coupled qHTS; conditions: FDH-coupled NADH fluorescence (FDH is formaldehyde dehydrogenase); activity change, negative = inhibition: at 57.7 µM (top of the series) unless noted; note: nearly all actives have a fitted effect of over 70% in size; for activity change, negative = inhibition: 0% is about no effect
Procedure, shortened: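 qHTS format, multiple compound concentrations. Buffer 50 mM HEPES pH 7.5/0.01% Tween-20; 200 nM KDM5BΔAP final; 10 min compound preincubation; substrate-mix levels 12.5 µM peptide, 25 µM α-KG, 0.25 mM NAD⁺; 30 min RT; ΔRFU.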
Potency is the fitted concentration of half-maximal effect; tags give direction and shape of the fitted curve.

Sequence of UniProt Q9UGL1 (Q9UGL1 whole entry, looked up): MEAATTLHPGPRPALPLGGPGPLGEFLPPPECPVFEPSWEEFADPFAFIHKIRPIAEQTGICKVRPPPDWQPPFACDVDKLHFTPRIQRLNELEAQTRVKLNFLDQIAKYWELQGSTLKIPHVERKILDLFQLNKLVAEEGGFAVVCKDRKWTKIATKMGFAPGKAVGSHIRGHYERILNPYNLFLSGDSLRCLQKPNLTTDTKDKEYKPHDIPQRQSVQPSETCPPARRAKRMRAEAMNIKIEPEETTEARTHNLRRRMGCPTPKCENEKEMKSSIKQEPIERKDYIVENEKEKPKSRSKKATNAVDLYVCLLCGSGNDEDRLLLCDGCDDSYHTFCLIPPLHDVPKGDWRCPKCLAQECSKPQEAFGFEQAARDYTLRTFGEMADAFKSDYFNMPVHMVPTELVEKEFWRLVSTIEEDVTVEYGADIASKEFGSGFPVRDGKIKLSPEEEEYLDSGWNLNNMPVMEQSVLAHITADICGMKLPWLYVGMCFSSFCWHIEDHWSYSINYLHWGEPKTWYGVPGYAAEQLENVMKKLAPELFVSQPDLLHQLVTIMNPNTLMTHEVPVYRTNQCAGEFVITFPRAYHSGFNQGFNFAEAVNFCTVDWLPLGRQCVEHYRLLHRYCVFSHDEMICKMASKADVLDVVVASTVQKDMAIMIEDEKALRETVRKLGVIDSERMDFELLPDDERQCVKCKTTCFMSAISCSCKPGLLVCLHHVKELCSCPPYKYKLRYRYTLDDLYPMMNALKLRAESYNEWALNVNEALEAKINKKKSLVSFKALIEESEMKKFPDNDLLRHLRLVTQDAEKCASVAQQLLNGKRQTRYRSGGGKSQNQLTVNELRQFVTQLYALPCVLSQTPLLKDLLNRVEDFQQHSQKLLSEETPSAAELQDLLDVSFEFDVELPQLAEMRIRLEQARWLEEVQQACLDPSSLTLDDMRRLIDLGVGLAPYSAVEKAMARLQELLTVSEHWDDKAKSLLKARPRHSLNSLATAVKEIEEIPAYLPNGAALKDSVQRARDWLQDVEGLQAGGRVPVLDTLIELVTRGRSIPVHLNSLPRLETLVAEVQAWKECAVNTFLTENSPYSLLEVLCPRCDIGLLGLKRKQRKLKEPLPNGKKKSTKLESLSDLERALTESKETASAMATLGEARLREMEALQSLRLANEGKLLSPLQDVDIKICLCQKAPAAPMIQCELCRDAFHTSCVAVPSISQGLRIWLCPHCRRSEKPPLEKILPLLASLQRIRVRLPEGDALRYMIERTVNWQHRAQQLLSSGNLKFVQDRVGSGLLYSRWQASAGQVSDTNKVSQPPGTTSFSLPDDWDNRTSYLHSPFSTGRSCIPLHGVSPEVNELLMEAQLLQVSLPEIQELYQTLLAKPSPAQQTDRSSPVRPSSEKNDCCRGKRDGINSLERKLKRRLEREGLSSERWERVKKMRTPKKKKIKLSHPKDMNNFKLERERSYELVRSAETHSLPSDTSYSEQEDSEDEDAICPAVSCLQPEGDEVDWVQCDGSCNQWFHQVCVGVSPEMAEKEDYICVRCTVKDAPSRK

Q: With CCn1nc(C(=O)N2CCCC(c3nc4ccccc4s3)C2)c2ccccc2c1=O (stereo unspecified) as the compound, how does the “activity change, negative = inhibition” value read?
A: inactive: -0.466%

Q: With Cc1noc2ncnc(N3CCCC(C(=O)NC(C)C)C3)c12 (stereo unspecified) as the compound, how does the “activity change, negative = inhibition” value read?
A: inactive: -8.31%

Q: With O=C(c1csnn1)N1CCc2onc(-c3cccc(F)c3)c2C1 as the compound, how does the “activity change, negative = inhibition” value read?
A: inactive: 33.7%

Q: With O=C(c1cc2c(s1)CN(C1CCCC1)C2)N1CCCCCC1 as the compound, how does the Potency read?
A: inconclusive: 7.94 µM [inhibitor, partial curve]

Q: For CC(=O)N1C[C@@H]2CCCN3CCC[C@@H]([C@H]23)[C@H]1CCCC(=O)NCCC1CCN(C(C)C)CC1, which Potency is on record?
A: inconclusive: 25.1 µM [inhibitor, partial curve, poor fit]

Q: Which Potency does the source give for COc1cccc(-c2cc3c(=O)n(CCNC(=O)c4cc5ccccc5[nH]4)ccn3n2)c1 here?
A: inconclusive: 28.2 µM [inhibitor, partial curve, poor fit]

Q: Which “activity change, negative = inhibition” value does the source give for CCOc1ccc(-c2csc(-c3c(C)c(C)nn(C)c3=O)n2)cc1 here?
A: inactive: 15.2%

Q: How did the Potency turn out when COCCc1noc(-c2ccccc2OC2CN(C(=O)Cc3cccc(C)c3)C2)n1 was run?
A: inconclusive: 20 µM [inhibitor, single point]

Q: Which “activity change, negative = inhibition” value does the source give for CC(C)Cn1nc(C(=O)Nc2ccc(SC(F)F)cc2)c2ccccc2c1=O here?
A: inactive: -4.75%

Q: Which Potency does the source give for CC(=O)N1CCC(N[C@@H]2C[C@H](Cn3cc(C4CC4)nn3)[C@@H](O)[C@H]2O)CC1 here?
A: inconclusive: 20 µM [inhibitor, partial curve, poor fit]

Q: How did the “activity change, negative = inhibition” value turn out when Cc1cc2oc(=O)cc(CN3CCN(C(=O)c4ccco4)CC3)c2cc1C(C)C was run?
A: inactive: -26%

Q: For O=C1c2cc(N3CCOCC3)nc(-c3ccc(F)cc3)c2CN1Cc1ccccc1, which Potency is on record?
A: active: 35.5 µM

Q: Which Potency does the source give for Cc1c(F)cc(C(N)=O)cc1NS(=O)(=O)c1ccc2ccccc2c1 here?
A: inconclusive: 28.2 µM [inhibitor, partial curve, poor fit]

Q: Which “activity change, negative = inhibition” value does the source give for O=C(NC1CCN(c2cc(-c3ccccc3)[nH]n2)CC1)c1cccs1 here?
A: inactive: 5.39%

Q: How did the Potency turn out when COc1cc(NC(=O)c2cc3c(N4CCSCC4)nc(C)cn3n2)c(OC)cc1Cl was run?
A: inconclusive: 28.2 µM [inhibitor, partial curve, poor fit]

Q: For COc1ccc(C2Nc3c(C)cc(C)cc3-c3cc(C)nn32)cc1OC (stereo unspecified), which Potency is on record?
A: inconclusive: 22.4 µM [inhibitor, partial curve, poor fit]

Q: For COc1ccc(NC(C)=O)cc1NC(=O)/C=C/c1ccc2ccccc2n1, which “activity change, negative = inhibition” value is on record?
A: inactive: 10.1%

Q: With Cc1ccn2c(c1)nc(=O)c1cc(S(=O)(=O)N3CCCCC3)c(Cl)cc12 as the compound, how does the Potency read?
A: inconclusive: 17.8 µM [inhibitor, partial curve, poor fit]

Q: How did the Potency turn out when COCCn1ccc2ccc(C(=O)Nc3ccc4c(c3)C(=O)N3CCC[C@H]3C(=O)N4)cc21 was run?
A: inconclusive: 15.8 µM [inhibitor, partial curve]

Q: Cc1ccc(-c2cc(C(=O)O)c3cc(Cl)ccc3n2)s1 was tested. Which Potency did it give?
A: inconclusive: 28.2 µM [inhibitor, partial curve, poor fit]

Q: CC1CCC(NC(=O)c2csc3c2CCC(C)C3)CC1 (stereo unspecified) was tested. Which “activity change, negative = inhibition” value did it give?
A: inactive: -2.34%

Q: For Fc1ccccc1-c1nnc(SCc2cccc(F)c2F)n1C1CC1, which “activity change, negative = inhibition” value is on record?
A: inactive: 12.2%

Q: For Cc1cccc(-c2nc3scc(CCNS(=O)(=O)c4ccc(F)cc4C)n3n2)c1, which Potency is on record?
A: inconclusive: 5.62 µM [inhibitor, partial curve, poor fit]

Q: For CCN1CCN(C(=O)c2[nH]c3ccc(OC)cc3c2C)CC1, which Potency is on record?
A: inconclusive: 28.2 µM [inhibitor, single point]

Q: How did the Potency turn out when O=c1[nH]n(CCn2cc(C3CCCNC3)nn2)c(=O)c2ccccc12 (stereo unspecified) was run?
A: inconclusive: 14.1 µM [inhibitor, partial curve, poor fit]

Q: How did the Potency turn out when CC1CCN(S(=O)(=O)c2ccc3nc(NCc4ccc(F)cc4)ccc3c2)CC1 was run?
A: inconclusive: 35.5 µM [inhibitor, partial curve, poor fit]

Q: Which Potency does the source give for O=C(NCC1(COc2ccc(C(F)(F)F)cn2)C[C@@H](O)[C@@H](O)C1)C1CC1 (stereo partly specified) here?
A: inconclusive: 14.1 µM [inhibitor, partial curve, poor fit]

Q: How did the Potency turn out when Cc1ccccc1Nc1c(-c2c[nH]c3ccccc23)nc2ccccn12 was run?
A: inconclusive: 1.58 µM [inhibitor, full curve, poor fit]

Q: Which Potency does the source give for Oc1ccccc1CN[C@H]1[C@H](O)[C@@H](N2CCN(c3ccccc3)CC2)[C@@H]2OC[C@H]1O2 here?
A: inconclusive: 28.2 µM [inhibitor, partial curve, poor fit]

Q: Which Potency does the source give for O=C1Cc2c(-c3ccccc3Cl)n[nH]c2CN1CC1CCOCC1 here?
A: inconclusive: 25.1 µM [inhibitor, partial curve, poor fit]

Q: How did the Potency turn out when CC1CCCCN1CCCNc1nc(-c2ccncc2)nc2ccccc12 (stereo unspecified) was run?
A: inconclusive: 15.8 µM [inhibitor, partial curve, poor fit]

Q: How did the Potency turn out when Cc1ccsc1C(=O)N1CCCC2(C1)Nc1cccnc1NC2=NC1CCCC1 (stereo unspecified) was run?
A: active: 25.1 µM

Q: CCc1cc(=O)oc2cc(OC(C)C(=O)NCCCn3ccnc3)ccc12 (stereo unspecified) was tested. Which Potency did it give?
A: inconclusive: 20 µM [inhibitor, single point]

Q: For CN(Cc1ccc(C(=O)NCC(F)(F)F)cc1)C(=O)/C=C/c1ccccc1, which “activity change, negative = inhibition” value is on record?
A: inactive: 27%

Q: With CN1CCN(Cc2cn3c(=O)n(C)cc(-c4cccc(OC(F)(F)F)c4)c3n2)CC1 as the compound, how does the “activity change, negative = inhibition” value read?
A: inactive: -8.8% [at 86.2 µM]

Q: How did the Potency turn out when Cc1nn2c(=O)cc(COC(=O)c3ccc(NC(=O)COc4ccc(Cl)cc4)cc3)nc2s1 was run?
A: inconclusive: 31.6 µM [inhibitor, partial curve, poor fit]

Q: Which “activity change, negative = inhibition” value does the source give for CC(C)c1ccc(C(C)NC(=O)c2cccc(N(C)C)c2)cc1 (stereo unspecified) here?
A: inactive: -0.934%

Q: Which Potency does the source give for O=C(NCc1cccnc1)c1ccc(N2CC3CC(C2)[C@H]2CCCC(=O)N2C3)nc1 (stereo partly specified) here?
A: inconclusive: 22.4 µM [inhibitor, partial curve, poor fit]

Q: Which Potency does the source give for COc1cccc2c(C)nc(NC3=NCN(CCO)CN3)nc12 here?
A: inconclusive: 20 µM [inhibitor, partial curve, poor fit]

Q: How did the Potency turn out when O=C(NCC(c1ccccn1)N1CCOCC1)c1cccc(-n2cnnc2)c1 (stereo unspecified) was run?
A: inconclusive: 11.2 µM [inhibitor, partial curve, poor fit]

Q: With N#Cc1ccc(-c2cccs2)nc1SCc1cccnc1 as the compound, how does the Potency read?
A: inconclusive: 25.1 µM [inhibitor, partial curve, poor fit]

Q: With Cc1cc(C(=O)OCC(=O)NC(=O)NC(C)C)c2ccccc2n1 as the compound, how does the “activity change, negative = inhibition” value read?
A: inactive: -23.6%

Q: How did the Potency turn out when Cn1nc(C2CCN(c3cncc(C(N)=O)n3)CC2)n(-c2ccccc2)c1=O was run?
A: inconclusive: 15.8 µM [inhibitor, partial curve, poor fit]

Q: How did the Potency turn out when Cc1ccc(S(=O)(=O)c2nnn(CC(=O)Nc3ccccc3C)c2N)cc1 was run?
A: inconclusive: 31.6 µM [inhibitor, single point]

Q: For CCOC(=O)c1cc(-c2ccccc2)n(CCC(=O)NCCc2ccc(C)cc2)c1C, which Potency is on record?
A: inconclusive: 15.8 µM [inhibitor, partial curve, poor fit]

Q: COc1ccc(OC)c(NC(=O)COCc2cc(-c3ccco3)on2)c1 was tested. Which activity change, negative = inhibition did it give?
A: inconclusive: -31.6% [inhibitor]

Q: How did the Potency turn out when COc1ccc(C2Cn3nnc(-c4nc(-c5ccccc5OC)no4)c3CO2)cc1 (stereo unspecified) was run?
A: active: 28.2 µM

Q: CC(C)Nc1ncnc2c1CN(C1CCCNC1)C(=O)CN2C (stereo unspecified) was tested. Which Potency did it give?
A: active: 63.1 µM

Q: How did the Potency turn out when O=C(Nc1cccc(C(F)(F)F)c1)c1cc2nc(-c3ccco3)cc(C(F)(F)Cl)n2n1 was run?
A: inconclusive: 7.08 µM [inhibitor, partial curve, poor fit]

Q: O=C1CCCCC(Cc2cccnc2)(C(=O)NCc2ccc3c(c2)OCO3)N1 (stereo unspecified) was tested. Which Potency did it give?
A: inconclusive: 22.4 µM [inhibitor, single point]

Q: N#CCCc1c(O)ccc2ccccc12 was tested. Which Potency did it give?
A: inconclusive: 25.1 µM [inhibitor, partial curve, poor fit]

Q: Which “activity change, negative = inhibition” value does the source give for Cc1c(C(=O)NC2CCS(=O)(=O)C2)nnn1-c1ccccc1 (stereo unspecified) here?
A: inactive: 31.2%

Q: COc1cc2c(=O)c(S(=O)(=O)c3ccc(C(C)C)cc3)cn(Cc3ccccc3C)c2cc1OC was tested. Which Potency did it give?
A: inconclusive: 3.98 µM [inhibitor, full curve, poor fit]

Q: How did the Potency turn out when O=C(c1ccccc1F)N1CCC2(CC1)CCN(Cc1cccs1)c1ccccc1O2 was run?
A: inconclusive: 14.1 µM [inhibitor, partial curve, poor fit]

Q: Which “activity change, negative = inhibition” value does the source give for Cc1nc2c(c(-c3ccc(Cl)cc3)n1)CCN(C(=O)c1cccc(Cl)c1)CC2 here?
A: inactive: 19.2%

Q: OCC1CCCCN1CCNc1nccc(-c2cccnc2)n1 (stereo unspecified) was tested. Which Potency did it give?
A: active: 25.1 µM

Q: COc1ccc(N2CCN(S(=O)(=O)c3cc(Br)cc4c3N(C(=O)C3CC3)CC4)CC2)cc1 was tested. Which activity change, negative = inhibition did it give?
A: inconclusive: -30% [inhibitor]

Q: With O=c1c2c(n(Cc3ccccc3)n1-c1ccccc1)CN(Cc1ccn[nH]1)CC2 as the compound, how does the Potency read?
A: inconclusive: 44.7 µM [inhibitor, partial curve, poor fit]

Q: How did the “activity change, negative = inhibition” value turn out when Cc1cccc(C(=O)NCCS(=O)(=O)Cc2ccccc2)c1 was run?
A: inactive: 14.6%

Q: COc1ccc(CN2C[C@@H](F)[C@@H](OCc3nc4ccccc4[nH]3)C2)cc1 was tested. Which “activity change, negative = inhibition” value did it give?
A: inactive: -7.17% [at 86.2 µM]

Q: Which Potency does the source give for Cc1ccc(NC(=O)Cn2c(=O)n(Cc3ccco3)c(=O)c3sc4ccccc4c32)c(C)c1 here?
A: inconclusive: 3.55 µM [inhibitor, partial curve, poor fit]

Q: How did the “activity change, negative = inhibition” value turn out when CCCc1cc(=O)oc2cc(OCC(=O)NCc3cccnc3)c(Cl)cc12 was run?
A: inactive: 5.93%

Q: For COc1cc(/C=C/C(=O)c2ccc(O)cc2)cc(Cl)c1O, which “activity change, negative = inhibition” value is on record?
A: inactive: -24%

Q: Cc1cc(C)cc(NC(=O)C2CC(=O)N(c3n[nH]c4cccc(F)c34)C2)c1 (stereo unspecified) was tested. Which Potency did it give?
A: inconclusive: 5.62 µM [inhibitor, single point]

Q: Which activity change, negative = inhibition does the source give for COc1ccccc1N1CCN(C(=O)c2ccc3c(c2)N(Cc2cc(C)ccc2C)C(=O)c2ccccc2S3(=O)=O)CC1 here?
A: inconclusive: -36.3% [inhibitor]

Q: With CN1CCN(c2c([N+](=O)[O-])cnc3ccccc23)CC1 as the compound, how does the Potency read?
A: inconclusive: 39.8 µM [inhibitor, single point]
